To fix the notation:
B1: LINE1-mini (parent)
chain: GGCAGAGCUCAACACAGCGUGGCAAAGUGGCUGUGGCUAGACUGCC

Read counts are not given, so values of variants with three or more changes are uncertain.

We go through 56 variants from the RNAGym collection of RNA variant scans (doi:10.7554/elife.90254).

This data set covers variants of B1. In words: self-cleavage, relative activity (ratio to wild type); higher = more cleavage; in vitro, sequencing; the parent is a self-cleaving ribozyme.
Take GGCAGAGCUCAACACCGCGUGGCAAAGUGCCUGUGGCUAGAGUGCC [A16C G30C C42G]: the self-cleavage is 0.05.

With GGCAGAGCUCAACACAGUGUGCCAAAGUGGCUUUAGCUAGACUGCC [C18U G22C G33U G35A], the self-cleavage came out at 0.03.

As for GGCAGAGCUCAACAUAGCGUGGUAAAGUGGCUGUGGCAAGACUCCC [C15U C23U U38A G44C], the self-cleavage stood at 0.51.

As for GGCAGAGCUCCACACAGCGUUGCAAAUUGGCUGUGGCUAGACUGCC [A11C G21U G27U], the self-cleavage turned out to be 0.02.

GGCAGAGCGCAACACAGCGUGGCAAAUUGGCUGUGGCUAUACUGCC [U9G G27U G40U]: the self-cleavage turned out to be 0.11.

Take GGCAGAGCUUAACACAGCGUGGCAAAGUGGCUGUGGUUAGACUGAC [C10U C37U C45A]: the self-cleavage was 0.07.

For the variant GGCAGAGAUCAACACAGCGAGGCAAAGUGUCUGUGGCUAGACUGCC [C8A U20A G30U], the self-cleavage was 0.1.

GGCUGUGCUCAACACAGCGUGGCAAAGAGGCUGAGGCUAGACUGCC [A4U A6U U28A U34A]: the self-cleavage worked out at 0.06.

In the case of GGCACAGCUAAAGACAGCGUGGCAAAGUGUCUGUGGCUAGAUUGGC [G5C C10A C13G G30U C42U C45G], the self-cleavage was found to be 0.02.

On to GGAAGAUCGCGACACAGCGUGGCAAAGUGGCUGUGGUUAGACUGCC [C3A G7U U9G A11G C37U], for which the self-cleavage amounted to 0.15.

With GGCAGCGCUCAACACAUCGCGGCAAAGUGGCUGUGGGUAGACUGCC [A6C G17U U20C C37G], the self-cleavage was determined as 0.04.

With GGCACAGCUCAACACAGCGUGGCAAAGUGUCUGUGGCUCGACUGCC [G5C G30U A39C], the self-cleavage is 0.04.

With GGCAGAGCUCAACACAGCGUGGCAAAGUGGAUUUGGCUAAACUGCC [C31A G33U G40A], the self-cleavage came to 0.08.

With GGCAGAGCAUAACACAGCGUGCCAAAAUGGCUGUGGCUAGACUGCC [U9A C10U G22C G27A], the self-cleavage was 0.

Turning to GGUAGAGCUCAACACAGCGUAGCAAAGUGGCUGUGGCUACACUGCC [C3U G21A G40C], the self-cleavage amounted to 0.04.

Regarding GGCGGAGAUCAACACAGCGUGGCAAAGUGGCUGUGGCUAUACUGCC [A4G C8A G40U], the self-cleavage was determined as 0.12.

Turning to GGCAGAGCACAAUACAGCGUGACAAAGUGACUGUGGUUAGACUGCC [U9A C13U G22A G30A C37U], the self-cleavage was 0.2.

Take GGUAGAGCUCAACACAGCGUGGCAAAGUGGCUAUGACUAGACUGGC [C3U G33A G36A C45G]: the self-cleavage came to 0.05.

For the variant GGCAGAGCUGAGAAAAGCGUGGCAAAGUGGCUGUGGCUAGACUGCC [C10G A12G C13A C15A], the self-cleavage amounted to 0.01.

In the case of GACAGAGCUCAACACAGCGUGGCAAAGUGGCUGUGGCUAGACUUCG [G2A G44U C46G], the self-cleavage was 1.08.

On to GGCAGAGCUCAAGACAGCGUGGUAAAGUGGCUGUGGAUAGACUGCC [C13G C23U C37A], for which the self-cleavage is 0.11.

In the case of GGCACAGCUCAACACAGCGUGUCAAAAUUGCUGUGGCUAGACUGCC [G5C G22U G27A G29U], the self-cleavage came to 0.02.

Turning to GGCAGAGUUCAAUACAGAGUGGCAAAGUGGCUGUGGCUAGACUGCC [C8U C13U C18A], the self-cleavage is 0.06.

In the case of GGCUGAUCUCAACACAGCGUGGCACAGUGGCUGUGGCUAGACUGCC [A4U G7U A25C], the self-cleavage was determined as 0.05.

In the case of GGCUGAGCUCAACACAGCGUGGCAAAGUCGCUGUGGCUAGCCUGCC [A4U G29C A41C], the self-cleavage was determined as 0.05.

With GGCAGAGCUUAACACAGCGUGCCAAAGUGGCUGUGGCUAGAAUGCC [C10U G22C C42A], the self-cleavage is 0.06.

In the case of GGCAGAACUCAACACAGCGUGGCAAAGUGGCUGUGGCAAGACUGAC [G7A U38A C45A], the self-cleavage was 0.07.

Regarding GGCAGCACUCAACACAGCGUGGCAAAGUGGCUGUGGCUUGACUGCC [A6C G7A A39U], the self-cleavage came out at 0.08.

With UGCAGAGCUCAACACACCGUGGAAAAGUGGCUGUGGCUAGAGUGCC [G1U G17C C23A C42G], the self-cleavage was 0.

Take GGCAGACCACAACAAAGCGUGGCAAAGUGGCUGUGACUAGACUGCC [G7C U9A C15A G36A]: the self-cleavage was 0.01.

With GGCAACGCUGAACACAGCGUGGUAAAGUCGCUGUGGCUAGACUGCC [G5A A6C C10G C23U G29C], the self-cleavage worked out at 0.02.

For the variant GGCAGUGCACAACACAGCGUGGCAAAGUGGCUGUGGCUAAACUGCC [A6U U9A G40A], the self-cleavage worked out at 0.13.

As for GGCAGAGCUCAACUCAGCGUGUCAAAGUGGCUCUGGCUAGAAUGCC [A14U G22U G33C C42A], the self-cleavage amounted to 0.07.

Consider GUCAGAGUUCAACACAGCGUGGCAAAAUGCCUGUGGCUAGACCGCC [G2U C8U G27A G30C U43C], for which the self-cleavage was determined as 0.2.

Turning to GGCAGAGCUCAACACAGCAUAGCAAAGUCGCUGUGGCUAUACUGCC [G19A G21A G29C G40U], the self-cleavage was determined as 0.14.

Take GGCGGAGCUCAACACAGCGUCGCAAAGUGGCUGUGUCUAGACUGCC [A4G G21C G36U]: the self-cleavage was determined as 0.14.

Take GACAGAGCUCAACACAGCGUGGCAAAGUGGUCGUGUCGAGAGAGCC [G2A C31U U32C G36U U38G C42G U43A]: the self-cleavage was found to be 0.11.

GGCAGAGCUCAACACAGCGUGGCAAAGUUGCUGUGACUAGAUUGCC [G29U G36A C42U]: the self-cleavage amounted to 0.19.

Take UGCAGAGCUGAAUACAGCGUGGCAAAGUGGCUGUCGCUAGACUGCC [G1U C10G C13U G35C]: the self-cleavage is 0.01.

With GGCAGAGCUAAACACAGCGUGUAAAAGUGGCUGUAGCUAGACUGCC [C10A G22U C23A G35A], the self-cleavage is 0.01.

As to GGCAGAGAUCAACACACCGUGGCAAUAUGGCUGUGGCUAGACUGCC [C8A G17C A26U G27A], the self-cleavage came out at 0.08.

As for GGCAGAUCUCAACUCAGCGUUGCAAAGUGGCUGUGGCAAGACUGCC [G7U A14U G21U U38A], the self-cleavage stood at 0.02.

Turning to GGCAUAGCUCACCACAGCGUGGCAAAGAGGCGGUGGCUAGACUGCC [G5U A12C U28A U32G], the self-cleavage is 0.02.

For GGCAGAGCUCAACAAAGCUUGGCACAGUGGCUGUGGAUGGACUGCC [C15A G19U A25C C37A A39G], the self-cleavage was 0.02.

Regarding GGCAGUGCUCAACACAGCGCGGCACAGUUGCUGUGGCUAGACUGCC [A6U U20C A25C G29U], the self-cleavage is 0.45.

For GGUAGAGCUCAACACAGAGUGGCAAAGUGGCUGUGGCUAGACUGGC [C3U C18A C45G], the self-cleavage came out at 0.03.

On to GGCAGAGCUCAACACACCGUGGCAAUGUGCCUGUGGCUAAACUGCC [G17C A26U G30C G40A], for which the self-cleavage worked out at 0.1.

With GGCACAGCUCAAAACAGCUUGGCAAAGUGGGUGUGGCUAGACUGUC [G5C C13A G19U C31G C45U], the self-cleavage is 0.02.

Take GGCACUUCUCAACUCAGCGUUGCAAAGUGGCUGUGGCUAUACUGCC [G5C A6U G7U A14U G21U G40U]: the self-cleavage was 0.02.

GGCAGAUCUCAAGACAGCGUGGCAAAGUGGCAGUGGUUAGACUGCC [G7U C13G U32A C37U]: the self-cleavage is 0.06.

Consider GGCAGAGCUCAACACAGGGUGGCAAAGUGGCUGUGGGUGGACUGCC [C18G C37G A39G], for which the self-cleavage amounted to 0.03.

As for GGCAGACCUCAAGAGAGCGUGGCAAAGUUGCUGUGGCUAGACUGCC [G7C C13G C15G G29U], the self-cleavage was determined as 0.08.

Regarding GGCAGAGCUAAACCCAGCGUGUCAAAGUGGCUGUGGCUAGACUGCC [C10A A14C G22U], the self-cleavage was 0.01.

For GACAGAGCUCAACAGAGCGUGGCAAAGUGGCUGUCGCUAGGCUGCC [G2A C15G G35C A41G], the self-cleavage amounted to 0.02.

As for GGCUGAGCACAACACAGAGUGGCAAAGUGGCUGUGGCUAAACUGCC [A4U U9A C18A G40A], the self-cleavage came out at 0.24.

As for GGCACAGCUCAACACAUCGUGGCAAAGUGGCUGGUGCUAGACUGCC [G5C G17U U34G G35U], the self-cleavage was 0.
